According to the RNAGym collection of RNA variant scans (doi:10.7554/elife.90254):
Read counts are not given, so values of variants with three or more changes are uncertain.

B1: LINE1-mini (parent)
chain: GGCAGAGCUCAACACAGCGUGGCAAAGUGGCUGUGGCUAGACUGCC

Variants of: B1
Assay: self-cleavage, relative activity (ratio to wild type); higher = more cleavage; in vitro, sequencing; the parent is a self-cleaving ribozyme

| Variant | self-cleavage |
| --- | --- |
| GGCAGAGCUCAACACAGAGUGGCAAAUAGGCUGUGGCUAUACUGCC | 0.06 |
| GGCAGAGCUCAACACAGAGUGGCAAAGUGGCUGUUGCUAGAGUGCC | 0.04 |
| GGCAGAGCUCAACACAGAGUCGCAAAGUGGCUGUUGCUAGACUGCC | 0.01 |
| GGCAGAGCUCAACACAGAGUCGCAAAGUGGCUGUAGCUAGACUGCC | 0.02 |
| GGCAGAGCUCAACACAGAGCAGCAAAGUGGCUGUGGCUAGACUGAC | 1.34 |
| GGCAGAGCUCAACACAGAGUGGCAAAGUGGCUGUGCCUAGACUCCC | 0.02 |
| GGCAGAGCUCAACACAGAGGGGCAAAGUGGCUGCGGCUAGACUGCC | 0.01 |
| GGCAGAGCUCAACACAGAGUGGCAAAGUAGCUGUGGCUAGAGCGAC | 0.01 |
| GGCAGAGCUCAACACAGAGUGGCAAAGUGUCUGUGGCUAGAAUGCC | 0.2 |
| GGCAGAGCUCAACACAGAGUGGCAAAGUUGCUGUGCCUAGACUGAC | 0.03 |
| GGCAGAGCUCAACACAGACUGGCAAAGUGGCUGUGGCUAAACUGUC | 0.02 |
| GGCAGAGCUCAACACAGAGUGGCAAAGAGGCUGUGGCUAGACAGCC | 0.01 |
| GGCAGAGCUCAACACAGGGUGGCCAAGUGGCUGUGGCAAGACUGCC | 0.03 |
| GGCAGAGCUCAACACAGAGUGGCAAAGUGACUGUGGCCAGACUGCC | 0.44 |
| GGCAGAGCUCAACACAGAGUCGCAAAGUGGCUGUGGCUAGAGUGCC | 0.03 |
| GGCAGAGCUCAACACAGAGUCGCAAAGUGGCUGUGGCUAGAUUGCC | 0.03 |
| GGCAGAGCUCAACACAGAGUUGCAAAGUGGCUCUGGAUAGAUUGCA | 0 |
| GGCAGAGCUCAACACAGAAUGGCAAAGUGGAAGUGGCUAGACUCCC | 0.03 |
| GGCAGAGCUCAACACAGGGUGGCAUAGUGGCAGUGGCGUGACUGCC | 0.08 |

| Variant | self-cleavage |
| --- | --- |
| GGCAGAGCUCAACACAGAGUAUCAAAGUGGCUGUGGCUAACCUUCC | 0.01 |
| GGCAGAGCUCAACACAGAGUUGCAAAGUGGCUGUGUCUAGACUGCA | 0.35 |
| GGCAGAGCUCAACACAGAGUGGCAAAGUGGCUAUGGCUAGACUCCC | 0.03 |
| GGCAGAGCUCAACACAGAGUGGCAAAGUGGCGGAGGCUAGACUGCC | 0.04 |
| GGCAGAGCUCAACACAGAGUUGCACAGUGGCUGGGGCUAGACUGCC | 0.05 |
| GGCAGAGCUCAACACAGAGCGUCAAAGUGGCUGUGGCUAGACUUCC | 0.06 |
| GGCAGAGCUCAACACAGGGUGGCAAAGUGGCUGUGGCUGGAAUGCC | 0.02 |
| GGCAGAGCUCAACACAGAGUGGCAAAGUGGCUUUGGCUAGACUGUC | 0.02 |
| GGCAGAGCUCAACACAGAGUGGCAAAGUGGCUGUUGCUAGACUGCU | 0.04 |
| GGCAGAGCUCAACACAGAAUGGCAAAGUGGCUGUGGCUAGACUCCC | 0.39 |
| GGCAGAGCUCAACACAGAUUGGAAAAGUGGCUGUGGCUAGACUGCC | 0.65 |
| GGCAGAGCUCAACACAGAGUCGCAGAGUAGCUGGGGCUAGACUGCC | 0.03 |
| GGCAGAGCUCAACACAGAGAGGCAAAGUGGCUGUGGCUAGGCUGCC | 0.21 |
| GGCAGAGCUCAACACAGAGUCGCAACGUGGCUGUGGCUAGACUGAC | 0.08 |
| GGCAGAGCUCAACACAGGGUGGCUACGUGGCAGUGGCUAGACUGCC | 0.01 |
| GGCAGAGCUCAACACAGAGUGGCAAAGUGGCUGUGGCUAUACUGAC | 0.03 |
| GGCAGAGCUCAACACAGAGUGGCAAAGUGGCUCUGCCUAGACUGGC | 0.02 |
| GGCAGAGCUCAACACAGGGUGGCAAGGUGGCUGUGGCUAGACGGCC | 0.02 |
| GGCAGAGCUCAACACAGAGUGUCAAAGUGGCUGUGGCUAGAGUGCC | 0.02 |

| Variant | self-cleavage |
| --- | --- |
| GGCAGAGCUCAACACAGAGUAGUAAAGUGGCUGUGGCUAGACGGCU | 0.03 |
| GGCAGAGCUCAACACAGAUUGGCAAAGUGGCUGUGGCUGGACUGCC | 0.04 |
| GGCAGAGCUCAACACAGAGUUGCAAAGUGGCUGUGGCUAGACAGCC | 0.04 |
| GGCAGAGCUCAACACAGAGUGGCAAAGGGGGUGUGGCUAGUCCGCC | 0.03 |
| GGCAGAGCUCAACACAGAUUGGCAAUGUGGCUGUCGCUAGAGUGCC | 0.01 |
| GGCAGAGCUCAACACAGAGAGGCAGAGUGGCUAUGGCUAGACUGCC | 0.05 |
| GGCAGAGCUCAACACAGAGCGGCAAAGUGGCUGUCGCUAAACUGCC | 0.07 |
| GGCAGAGCUCAACACAGAUUGGCAAAUUGGCUGUGUCUAGACUGCC | 0.04 |
| GGCAGAGCUCAACACAGAGUGGCAAAGUGGCUGUGCCUAGAAUGCC | 0 |
| GGCAGAGCUCAACACAGAGCGGCAGAGUAACUGUGGCUAGACUUCC | 0.01 |
| GGCAGAGCUCAACACAGAAUGGCAAGGGGGCUGUGGCUAGACUGCC | 0.03 |
| GGCAGAGCUCAACACAGAGUUGCAAAGUGGCGGUGGCUAGACUGCC | 0 |
| GGCAGAGCUCAACACAGAGUGGCAAAGUGGCUGUGGCGAGAAUGCC | 0.01 |
| GGCAGAGCUCAACACAGAGUGGCAAAGUGUCUGUGGAAAGUCAGCC | 0 |
| GGCAGAGCUCAACACAGAGUUGCAAAAUGGCUGUGGCUAGACUGCC | 0.38 |
| GGCAGAGCUCAACACAGGGUGGCAAUGAGGCUGUGGCUAGACUGCC | 1.46 |
| GGCAGAGCUCAACACAGAGUGGCAAAGGGGCUGUGGCUAGACUUAC | 0.02 |
| GGCAGAGCUCAACACAGAGUGGCAAAGUGGCUGUCGCUCGACUGCC | 0.05 |
